# About 120 (0.75%) of roughly 16,000 compounds were called active. Inconclusive results (about 4%) are left out. Calls follow the shape of the dose curve; as a rule, active = well fitted inhibition curve with a large enough effect; inconclusive = small, poorly fitted or top-dose-only effect; inactive = no such curve, though single readings can be large or run the other way. The list shows a part of the results.
# Target: Rap guanine nucleotide exchange factor 3 (Homo sapiens) (UniProt O95398)
# Assay: Validation qHTS for antagonist of cAMP-regulated guanine nucleotide exchange factor 3 (EPAC1);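 also: plate controls were DMSO for no effect and ATA control for full effect; nearly all actives have a fitted effect of over 75% in size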
# Settings: EPAC1 Rap1B-BODIPY-GDP exchange, fluorescence; series mostly up to 150 µM; activity change, negative = inhibition: at the top concentration
# Procedure, shortened: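 EPAC1 (100 nM) mixed with 250 nM RAP1B-BODIPY-GDP and 50 uM GDP; compounds in concentration series, 5 min at room temperature. Fluorescence (ex 480/em 540 nm) read every 5 min for 30 min; normalized to ATA control and DMSO.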
# UniProt O95398, sequence (O95398 whole entry, looked up): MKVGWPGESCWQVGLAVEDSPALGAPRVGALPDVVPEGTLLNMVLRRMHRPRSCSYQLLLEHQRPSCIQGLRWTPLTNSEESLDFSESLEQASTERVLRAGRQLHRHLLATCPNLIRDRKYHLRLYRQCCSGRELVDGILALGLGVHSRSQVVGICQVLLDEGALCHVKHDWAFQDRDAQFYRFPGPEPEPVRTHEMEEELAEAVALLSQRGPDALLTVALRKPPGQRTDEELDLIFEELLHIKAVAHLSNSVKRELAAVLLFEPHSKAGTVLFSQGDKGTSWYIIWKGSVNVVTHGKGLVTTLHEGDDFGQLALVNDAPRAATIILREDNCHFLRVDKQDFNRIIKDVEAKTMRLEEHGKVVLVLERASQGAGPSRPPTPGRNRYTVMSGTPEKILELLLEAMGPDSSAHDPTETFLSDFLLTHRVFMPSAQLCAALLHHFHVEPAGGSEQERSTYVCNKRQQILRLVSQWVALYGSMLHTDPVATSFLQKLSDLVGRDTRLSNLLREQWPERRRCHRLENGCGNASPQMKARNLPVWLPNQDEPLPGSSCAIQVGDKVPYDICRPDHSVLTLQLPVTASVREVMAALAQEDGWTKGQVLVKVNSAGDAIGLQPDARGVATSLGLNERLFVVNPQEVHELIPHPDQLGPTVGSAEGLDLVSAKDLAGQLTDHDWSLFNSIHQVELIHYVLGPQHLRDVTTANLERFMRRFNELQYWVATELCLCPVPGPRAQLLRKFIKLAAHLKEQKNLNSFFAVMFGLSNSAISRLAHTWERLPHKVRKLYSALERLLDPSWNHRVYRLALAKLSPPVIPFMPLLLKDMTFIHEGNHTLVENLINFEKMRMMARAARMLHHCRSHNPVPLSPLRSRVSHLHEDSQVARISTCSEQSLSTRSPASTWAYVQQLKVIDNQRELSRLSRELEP
row,Structure (SMILES),"activity change, negative = inhibition"
1,O[C@H]1CCCC[C@H]1N1CCC(c2ccccc2)CC1,inactive: 3.47%
2,O=c1ccc2[nH]cc(C3=CCNCC3)c2[nH]1,inactive: 6.78%
3,C=CCN1CC[C@]23CCCC[C@H]2[C@H]1Cc1ccc(O)cc13,inactive: 22.8%
4,c1ccc(N2CC[C@@]3(CCCNC3)C2)cc1,inactive: 13.5%
5,FC(F)(F)c1cccc(C2=CCN(CCc3ccc4ccccc4c3)CC2)c1,inactive: 11.3%
6,CC(C)c1ccc2c(c1O)CCC1C3=C(CC[C@]21C)C(=O)OC3 (stereo partly specified),inactive: -6.12%
7,ClC1=C(Cl)C2(Cl)C(CBr)CC1(Cl)C2(Cl)Cl (stereo unspecified),inactive: 8.34%
8,O=c1[nH]c2ccccc2n1C1CCN(CCCC(c2ccc(F)cc2)c2ccc(F)cc2)CC1,inactive
9,CC(=O)[O][Hg][c]1ccccc1,inactive: 18.6%
10,CC(=O)O[C@H]1C[C@H](O[C@H]2[C@@H](O)C[C@H](O[C@H]3[C@@H](O)C[C@H](OC4CC[C@@]5(C)C(CC[C@@H]6[C@@H]5CC[C@]5(C)[C@@H](C7=CC(=O)OC7)[C@@H](O)C[C@]65O)C4)O[C@@H]3C)O[C@@H]2C)O[C@H](C)[C@H]1O[C@@H]1O[C@H](CO)[C@@H](O)[C@H](O)[C@H]1O (stereo partly specified),inactive: 9.65%
11,CC(=O)Oc1ccc2c3c1O[C@H]1[C@@H](OC(C)=O)C=C[C@H]4[C@@H](C2)N(C)CC[C@@]341,inactive
12,CCN(CCO)CCn1c(Cc2ccccc2)nc2c1c(=O)n(C)c(=O)n2C,inactive: 11.6%
13,NCC[C@H](O)C(=O)N[C@@H]1C[C@H](N)[C@@H](O[C@H]2O[C@H](CN)[C@@H](O)[C@H](O)[C@H]2N)[C@H](O[C@@H]2O[C@H](CO)[C@@H](O)[C@H]2O)[C@H]1O,inactive: -0.162% [at 75.8 µM]
14,C=CCOC(Cn1ccnc1)c1ccc(Cl)cc1Cl (stereo unspecified),inactive: 29.6%
15,CC(=O)Nc1cc([As](=O)(O)O)ccc1O,inactive: 14.8%
16,O=C(O)/C=C/CO,inactive
17,CCCN1CC[C@@H]2c3cc(O)ccc3CC[C@@H]21,inactive: -1.56% [at 75.8 µM]
18,COc1ccc2c(C(=O)c3ccc(Cl)cc3)c(C)n(CC(=O)O)c2c1,inactive: 33.6%
19,COC(COC(N)=O)C1=C(N2CC2)C(=O)C(C)=C(N2CC2)C1=O (stereo unspecified),inactive: 9.9%

row,Structure (SMILES),"activity change, negative = inhibition"
1,NC(C(=O)O)c1cc(=O)[nH]o1 (stereo unspecified),inactive
2,CCC(C(N)=O)N1CCCC1=O (stereo unspecified),inactive: 19.9%
3,CCCCCCCCCCCC[N+](C)(C)CCOc1ccccc1,inactive: -3.93%
4,C[N+]1([O-])[C@@H]2CC[C@H]1CC(OC(=O)C(CO)c1ccccc1)C2 (stereo partly specified),inactive
5,CC(C)(c1ccc(OC[C@@H]2CO2)cc1)c1ccc(OC[C@H]2CO2)cc1,inactive: -6.3%
6,Nc1ccc(CCN2CCN(c3cccc(C(F)(F)F)c3)CC2)cc1,inactive
7,COc1cccc2c1cc([N+](=O)[O-])c1c(C(=O)O)cc3c(c12)OCO3,inactive
8,CC(C)NCC(O)c1ccccc1Cl (stereo unspecified),inactive: 2.17%
9,CC(=O)NCCc1c[nH]c2ccccc12,inactive
10,CC[N+](C)(CC)CCOC(=O)C(O)(c1ccccc1)c1ccccc1,inactive: 6.99%
11,O=C(Nc1ccccc1-c1ccc(Cl)cc1)c1cccnc1Cl,inactive: 9.77% [at 320 µM]
12,CNCC/C=C\c1cccnc1,inactive: 5.38%
13,CCc1c(C(=O)OC)ncc2[nH]c3cc(OC)c(OC)cc3c12,inactive: -16%
14,O[C@@H]1CCCN2C[C@@H](O)[C@@H](O)C12 (stereo partly specified),inactive: 19.9% [at 320 µM]
15,O=C1Nc2ccc(Cl)cc2C(c2ccccc2)=NC1O (stereo unspecified),inactive
16,COc1ccc2c(c1)[C@@]13CCCCC1[C@@H](C2)N(C)CC3 (stereo partly specified),inactive: -1.88%
17,CC(N)c1cccc(Cl)c1Cl (stereo unspecified),inactive: -5.25% [at 75.8 µM]
18,C=CCN1CCC2(C)c3cc(O)ccc3CC1[C@@H]2C (stereo partly specified),inactive: 24.7%
19,CC(C)(O)[C@@H]1C2OC(=O)[C@@H]1[C@]1(O)C[C@H]3O[C@]34C(=O)O[C@H]2[C@]14C,inactive: 14.6%

row,Structure (SMILES),"activity change, negative = inhibition"
1,Cc1noc(C)c1C(=O)N1CCC[C@@]2(CCN(CC(C)C)C2)C1,inactive: 29.2%
2,NC(=NCc1ccc(Cl)cc1)SCCCc1cnc[nH]1,inactive: 2.99%
3,c1csc(CN2CC3(CCNCC3)C2)n1,inactive: 23.8%
4,COc1ccc2c3c1O[C@H]1C(=O)CC[C@H]4[C@@H](C2)N(C)CC[C@]314,inactive: 6.64%
5,C=C[C@H]1CN2CC[C@H]1C[C@H]2c1[nH]c2ccccc2c1CCO,inactive: -4.7%
6,C#CCN(C)[C@H](C)Cc1ccccc1,inactive
7,O=C(Nc1ccc(Br)cc1)c1cc(Br)cc(Br)c1O,inactive: 24.3%
8,COc1cc(C[C@H](C)N)c(OC)cc1C,inactive: 28.4% [at 320 µM]
9,c1ccc(CCN2CCCCC2)cc1,inactive: 22.4%
10,NCCc1ccccc1,inactive: 15.9%
11,C[C@@H]1O[C@@H](O[C@@H]2C=C3CC[C@@H]4[C@H](CC[C@]5(C)[C@@H](c6ccc(=O)oc6)CC[C@]45O)[C@@]3(C)CC2)[C@H](O)[C@H](O)[C@H]1O,inactive: 15.2% [at 75.8 µM]
12,NC(Cc1ccc(N(CCCl)CCCl)cc1)C(=O)O (stereo unspecified),inactive
13,C/C=C1/CN2CC[C@]34C(=C(C=O)[C@H]1C[C@@H]23)Nc1ccccc14,inactive: 9.85%
14,CC1(C)C(C(Cl)Cl)C2(Cl)C(Cl)C(Cl)C1(Cl)C2(Cl)Cl (stereo unspecified),inactive: 11.7%
15,CCN(CC)CCOC(=O)C(O)(c1ccccc1)c1ccccc1,inactive: 22.8%
16,N[C@H](CCP(=O)(O)O)C(=O)O,inactive
17,CC(C)(C)OC(=O)c1ncn2c1[C@@H]1CCCN1C(=O)c1c(Br)cccc1-2,inactive: -4.47%
18,OC(c1ccccc1)(c1ccccc1)C1CN2CCC1CC2 (stereo unspecified),inactive: 20.2%

# Source: PubChem BioAssay AID1645882 (National Center for Advancing Translational Sciences (NCATS), 2021)
